Laboratory results reported in article PMC4336329 (PLoS ONE, 2015).
Out of some 310,000 compounds screened, about 14,000 (4.5%) showed an effect of 50% or more. The effect is printed as a negative number. This is one part of the list.

Target: human ether-à-go-go-related gene (hERG) potassium channel (human, UniProt Q12809)
Test: primary screen, population patch clamp on CHO cells stably expressing hERG
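Also: peak tail current of the secondary pulse compared with the same well before compound.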

Sequence of human ether-à-go-go-related gene (hERG) potassium channel (Q12809 whole entry, looked up): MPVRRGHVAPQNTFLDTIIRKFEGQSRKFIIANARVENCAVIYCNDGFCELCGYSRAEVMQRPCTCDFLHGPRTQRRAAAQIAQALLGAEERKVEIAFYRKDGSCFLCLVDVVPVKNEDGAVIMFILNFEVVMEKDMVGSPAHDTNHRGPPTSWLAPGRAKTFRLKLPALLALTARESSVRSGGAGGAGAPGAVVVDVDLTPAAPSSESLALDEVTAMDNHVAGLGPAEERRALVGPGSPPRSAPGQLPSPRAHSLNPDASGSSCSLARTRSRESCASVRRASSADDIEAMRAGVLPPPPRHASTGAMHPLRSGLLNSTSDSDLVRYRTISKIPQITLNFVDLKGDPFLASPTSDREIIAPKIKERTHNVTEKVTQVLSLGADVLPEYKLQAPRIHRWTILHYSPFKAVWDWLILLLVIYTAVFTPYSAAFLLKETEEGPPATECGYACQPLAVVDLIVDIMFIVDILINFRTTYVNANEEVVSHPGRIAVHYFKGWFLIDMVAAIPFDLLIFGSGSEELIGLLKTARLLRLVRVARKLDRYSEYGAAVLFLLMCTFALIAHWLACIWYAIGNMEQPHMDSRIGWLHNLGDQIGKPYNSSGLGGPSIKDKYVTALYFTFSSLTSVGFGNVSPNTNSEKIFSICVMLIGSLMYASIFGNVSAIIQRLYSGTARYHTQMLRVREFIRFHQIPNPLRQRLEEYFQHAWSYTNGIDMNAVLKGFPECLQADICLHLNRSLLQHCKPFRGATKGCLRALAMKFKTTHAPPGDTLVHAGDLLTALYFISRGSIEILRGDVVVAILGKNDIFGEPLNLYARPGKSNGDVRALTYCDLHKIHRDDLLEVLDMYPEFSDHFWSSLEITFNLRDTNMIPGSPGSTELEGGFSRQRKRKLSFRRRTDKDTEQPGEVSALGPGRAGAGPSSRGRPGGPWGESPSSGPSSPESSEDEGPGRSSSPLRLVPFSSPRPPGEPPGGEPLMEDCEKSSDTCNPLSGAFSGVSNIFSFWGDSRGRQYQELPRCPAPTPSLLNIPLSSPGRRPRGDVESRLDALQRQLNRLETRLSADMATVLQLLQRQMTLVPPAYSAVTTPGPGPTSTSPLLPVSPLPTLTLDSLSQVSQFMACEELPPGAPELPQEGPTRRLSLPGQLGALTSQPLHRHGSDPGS

Compared with `CC(C)(C)c1csc(N/N=C/c2ccc(O)cc2)n1`, `Cc1csc(NC(=O)Cc2ccc(Br)cc2)n1` is higher in “hERG current change (%, negative = inhibition) at 10uM” value: -0.632% for the first, 4.97% for the second.

Going from `CCCN=C1NC(=O)C(CC(=O)NCCc2ccc(OC)c(OC)c2)S1` (stereo not drawn) to `COc1cc(OC)c(N2CC(C(=O)NCCC3=CCCCC3)CC2=O)cc1Cl` (stereo not drawn), the “hERG current change (%, negative = inhibition) at 10uM” value falls from 2.82% to -7.23%.

First: Nc1ccccc1C(=O)OCc1ccc([N+](=O)[O-])cc1
Second: Cc1cc(C)nc(N/N=C/c2ccccc2OCc2ccc([N+](=O)[O-])cc2)n1
The “hERG current change (%, negative = inhibition) at 10uM” value of the first is higher: 7.98% for the first, -11.9% for the second.

Going from `COc1ccc(C(=O)NNC(=O)c2ccccn2)cc1` to `CCC(=O)Nc1ccc(C(=O)NNC(=O)c2ccc(C)cc2)cc1`, the “hERG current change (%, negative = inhibition) at 10uM” value rises from 5.21% to 14%.

First: Cn1c(C(=O)NCC2CCCO2)cc2c(=O)[nH]c3ccccc3c21 (stereo not drawn)
Second: O=C(O)c1c(NC(=O)c2cccc3ccccc23)sc2c1CCC2
The “hERG current change (%, negative = inhibition) at 10uM” value of the first is higher: 8.03% for the first, 5.11% for the second.

Going from `Cc1ncc([N+](=O)[O-])n1CC(=O)NCc1ccccc1` to `Cc1cc(=O)[nH]c(SCC(=O)NCCc2ccccc2)n1`, the “hERG current change (%, negative = inhibition) at 10uM” value falls from 16% to -1.63%.

First: Cn1cc(C(=O)OCC(=O)Nc2ccccc2)c2ccccc21
Second: CCCCn1c(NC(=O)c2ccccc2)nc2ccccc21
The “hERG current change (%, negative = inhibition) at 10uM” value of the first is lower: -8.39% for the first, -4.34% for the second.

Going from `O=C(COc1ccc(Cl)cc1)OCC(=O)N1CCCCCC1` to `CC(=O)Nc1ccc(S(=O)(=O)N2CCN(C(=O)N3CCCCC3)CC2)cc1`, the “hERG current change (%, negative = inhibition) at 10uM” value rises from 12.6% to 13.2%.

Going from `Cc1c(Cl)c([N+](=O)[O-])nn1CCCC(=O)Nc1cc(Cl)ccc1Cl` to `Cc1c(Cl)c([N+](=O)[O-])nn1CCCC(=O)Nc1cc(Oc2ccccc2)cc([N+](=O)[O-])c1`, the “hERG current change (%, negative = inhibition) at 10uM” value falls from -12.2% to -19.2%.

First: Cc1ccc(S(=O)(=O)N2CCOCC2)cc1C(=O)Nc1ccc(-c2cn3ccsc3n2)cc1
Second: COc1ccc(CNC(=O)c2oc3ccc(S(=O)(=O)N4CCOCC4)cc3c2C)cc1
The “hERG current change (%, negative = inhibition) at 10uM” value of the first is lower: -9.94% for the first, 7.71% for the second.

Going from `O=C(CCC1CCCN(C(=O)Cc2cccc(F)c2)C1)N1CCN(c2ccccn2)CC1` (stereo not drawn) to `Cc1cccc(N2CCN(C(=O)CCNS(=O)(=O)c3cccs3)CC2C)c1` (stereo not drawn), the “hERG current change (%, negative = inhibition) at 10uM” value rises from -21.8% to 7.88%.

Compared with `O=C(N/N=C\c1ccc([N+](=O)[O-])o1)C1COc2ccccc2O1` (stereo not drawn), `O=C(O)c1ccc(/C=N/NC(=S)NCc2ccccc2)cc1` is higher in “hERG current change (%, negative = inhibition) at 10uM” value: -67.4% for the first, 22.9% for the second.

First: O=c1nc(N2CCCC2)nc(N2CCCC2)[nH]1
Second: CCCCCCCc1c(C)nc(N2CCOCC2)[nH]c1=O
The “hERG current change (%, negative = inhibition) at 10uM” value of the first is higher: 11.2% for the first, -6.68% for the second.

Compared with `CN1C(=O)CSC1=Nc1ccc(Br)cc1`, `O=C1NCCN/C1=C\C(=O)c1ccc(Br)cc1` is lower in “hERG current change (%, negative = inhibition) at 10uM” value: 9.52% for the first, 6.85% for the second.

Compared with `Cn1c(SCc2ccc(Br)cc2)nnc1-c1cccs1`, `C=CCn1c(SCn2nnc3ccccc3c2=O)nnc1-c1ccc(Br)cc1` is lower in “hERG current change (%, negative = inhibition) at 10uM” value: -38.2% for the first, -62.7% for the second.

Going from `O=C(NC1CC1)C1=C[C@H](C2CCCCC2)C[C@H](OCc2ccc(CO)cc2)O1` to `CCC(C)C(NC(=O)C1CCC(C)CC1)C(=O)Nc1ccc(OC)cc1` (stereo not drawn), the “hERG current change (%, negative = inhibition) at 10uM” value rises from -17.2% to -1.46%.

Going from `CC(C)(C)SC(=O)C[C@@H]1NS(=O)(=O)OC2CCCCC21` (stereo partly drawn) to `CC(NS(=O)(=O)c1cccc(Cl)c1)C(=O)N(C)C1CCN(C)CC1` (stereo not drawn), the “hERG current change (%, negative = inhibition) at 10uM” value rises from 2.1% to 11.4%.

Going from `CCCCn1cnc2c(oc3ccccc32)c1=O` to `O=c1c2ccccc2nnn1Cc1ccccc1`, the “hERG current change (%, negative = inhibition) at 10uM” value rises from -2.95% to 35.3%.

Compared with `Cc1cc(C)c2c3c(sc2n1)C(=O)N(c1ccccc1C)CC(=O)N3`, `Cc1cccc(C)c1NC(=O)C1NC(=O)CC1c1ccccc1` (stereo not drawn) is lower in “hERG current change (%, negative = inhibition) at 10uM” value: 14.6% for the first, -8.95% for the second.

First: COC(=O)CN1C2(C#N)CCCCC2CC2CCCCC21C#N (stereo not drawn)
Second: COc1ccc(-n2nc(C(=O)NCC(=O)N3CCC4(CC3)OCCO4)c3ccccc3c2=O)cc1Cl
The “hERG current change (%, negative = inhibition) at 10uM” value of the first is higher: -3.35% for the first, -20.3% for the second.

First: O=C(CN1CC=C(c2ccccc2)CC1)Nc1cc(Cl)ccc1Cl
Second: O=C(NNS(=O)(=O)c1ccccc1F)c1cc(-c2ccccc2)n[nH]1
The “hERG current change (%, negative = inhibition) at 10uM” value of the first is lower: -12.8% for the first, -4.7% for the second.

Going from `S=C(NCCc1ccccc1)Nc1ccc(Br)cn1` to `OC(c1ccccc1)(c1ccccc1)C1CCN(C(=S)NCCc2ccccc2)CC1`, the “hERG current change (%, negative = inhibition) at 10uM” value rises from 3.98% to 16.3%.

First: CC(C)NC(=S)N1CCN(C/C=C/c2ccccc2)CC1
Second: COc1ccccc1CN(C)C(=O)c1cccc(S(=O)(=O)N2CCN(Cc3ccccc3)CC2)c1
The “hERG current change (%, negative = inhibition) at 10uM” value of the first is higher: -15.5% for the first, -17.3% for the second.

Compared with `COc1ccc(Cn2c(=O)[nH]c3cc(C(=O)Nc4ccccc4C)ccc32)cc1`, `COc1ccc(C(CCNCc2ccc(OC(C)C)cc2)c2ccccc2OC)cc1` (stereo not drawn) is lower in “hERG current change (%, negative = inhibition) at 10uM” value: 2.66% for the first, -76% for the second.

Going from `N#CCCn1c(SCC(=O)NCc2ccco2)nc2ccccc21` to `COc1cccc(-c2ccc(C#N)c(SCC(=O)NCc3ccco3)n2)c1`, the “hERG current change (%, negative = inhibition) at 10uM” value rises from -3.37% to 2.93%.

Compared with `O=C(NC(=S)Nc1cccc(Cl)c1Cl)C1CC1`, `COc1ccc(NC(=O)C2C3CCC(O3)C2C(=O)O)c(C)c1` (stereo not drawn) is lower in “hERG current change (%, negative = inhibition) at 10uM” value: 15.5% for the first, 4.68% for the second.

Compared with `CCC(c1nnnn1C(C)(C)C)N1CCN(c2cc(Cl)ccc2C)CC1` (stereo not drawn), `CCOC(=O)N1CCN(c2c(N3CCN(c4cccc(C(F)(F)F)c4)CC3)c(=O)c2=O)CC1` is lower in “hERG current change (%, negative = inhibition) at 10uM” value: -29.6% for the first, -46.4% for the second.

Compared with `CC(C)CN1CCN(Cc2ccc(Oc3ncccn3)cc2)CC1CCO` (stereo not drawn), `COc1cc(OC)c(OC)cc1CN1CCN(Cc2ccc(SC)cc2)CC1.O=C(O)C(=O)O` is lower in “hERG current change (%, negative = inhibition) at 10uM” value: -28.5% for the first, -61.5% for the second.

First: Cc1cc(C)cc(OCc2nnc(N)s2)c1
Second: O=[N+]([O-])c1cc(Br)c(OCc2nnc(-c3ccccc3)o2)c(Br)c1
The “hERG current change (%, negative = inhibition) at 10uM” value of the first is higher: 3.16% for the first, 2.72% for the second.

First: CCc1ccc(NC(=O)c2noc(C(C)C)c2[N+](=O)[O-])cc1
Second: Cc1[nH]c(C)c(S(=O)(=O)NCc2ccc(OC(C)C)cc2)c1C(=O)N1CCCC1
The “hERG current change (%, negative = inhibition) at 10uM” value of the first is lower: 6.27% for the first, 11.1% for the second.

First: O=C(Cn1c2ccccc2c(=O)c2ccccc21)N/N=C/c1ccc(N2CCCC2)c([N+](=O)[O-])c1
Second: O=[N+]([O-])c1ccccc1/C=C/C=N/Nc1ccc(S(=O)(=O)Nc2ccc(Cl)cc2)cc1[N+](=O)[O-]
The “hERG current change (%, negative = inhibition) at 10uM” value of the first is lower: 5.73% for the first, 20.8% for the second.

Compared with `COCCN1C=C2C(=O)C(C)(OC(=O)CCC(=O)OC)C(=O)C(Br)=C2C=C1c1ccc(OC)cc1` (stereo not drawn), `COc1cccc(/C=C2\SC(=S)N(CCC(=O)NNC(=O)c3ccccc3OC)C2=O)c1` is higher in “hERG current change (%, negative = inhibition) at 10uM” value: 7.96% for the first, 18.5% for the second.

Going from `OC12Oc3ccccc3C=C1N1CCC2CC1` (stereo not drawn) to `CC1(C)CC(NC(=O)C2CCN(S(=O)(=O)c3ccccc3C(F)(F)F)CC2)CC(C)(C)N1`, the “hERG current change (%, negative = inhibition) at 10uM” value rises from 4.03% to 11.1%.

Going from `CC(OC(=O)CNC(=O)c1ccc(Cl)c([N+](=O)[O-])c1)C(=O)NCc1ccco1` (stereo not drawn) to `O=C(NCc1ccccc1Cl)C(=O)NCC1OCCN1S(=O)(=O)c1ccc(F)cc1` (stereo not drawn), the “hERG current change (%, negative = inhibition) at 10uM” value falls from -10.1% to -13.2%.

Going from `CCN(CC)C(=O)CSc1nc2c(c(-c3cccnc3)c1C#N)CCCC2` to `Cc1nc2nc3c(cn2n1)C(=O)CCC3`, the “hERG current change (%, negative = inhibition) at 10uM” value rises from -35.8% to -1.49%.

Compared with `C/C=C\C=C\C(=O)Nc1cccc(C2=NOC3(C2)C[C@@H](C(N)=O)N(C(=O)C(c2ccccc2)c2ccccc2)C3)c1` (stereo partly drawn), `Cc1cccc(CN2C(=O)NC(c3ccccc3)(c3ccccc3)C2=O)c1` is lower in “hERG current change (%, negative = inhibition) at 10uM” value: 0.545% for the first, -32.1% for the second.

First: Cc1cc(NC(=O)C2CC(c3ccc(F)cc3)=NO2)no1 (stereo not drawn)
Second: Fc1ccc2c(c1)[C@H]1OCC[C@H]1[C@@H](c1ccco1)N2
The “hERG current change (%, negative = inhibition) at 10uM” value of the first is higher: -4.27% for the first, -8.3% for the second.

Going from `O=C(NC1(C(F)(F)F)Oc2ccc(Cl)cc2O1)N1CCC2(CC1)OCCO2` (stereo not drawn) to `O=C(Nc1nnc(C2=COCCO2)o1)c1ccc(S(=O)(=O)N2CCCC2)cc1`, the “hERG current change (%, negative = inhibition) at 10uM” value rises from 13.2% to 17.2%.

Compared with `CCCCN(C)CCCNC(=O)C1CCC(CNS(=O)(=O)c2c(C)cc(C)cc2C)CC1` (stereo not drawn), `CCOC(=O)c1c(S(=O)(=O)NCC(=O)NCc2cccc(C)c2)c(C)n(C)c1C` is higher in “hERG current change (%, negative = inhibition) at 10uM” value: -77.3% for the first, -41.3% for the second.

Compared with `Cc1nnsc1C(=O)Nc1ccccc1`, `O=C(O)c1cccc(NC(=S)N/N=C/c2cccc(O)c2)c1` is lower in “hERG current change (%, negative = inhibition) at 10uM” value: 18.2% for the first, 10.5% for the second.

First: O=C(CCN1C(=O)S/C(=C\c2ccc(F)cc2)C1=O)Nc1ccc(O)cc1C(=O)O
Second: COc1ccc(CC(=O)OCC(=O)Nc2ccc(Cl)c(S(=O)(=O)N(C)C)c2)cc1
The “hERG current change (%, negative = inhibition) at 10uM” value of the first is higher: 14.2% for the first, 12.9% for the second.

Going from `CCn1c(=N)n(CCOc2ccc(OC)cc2)c2ccccc21` to `O=C(COC(=O)c1cccc(-n2cnnn2)c1)Nc1c(Cl)cccc1C(F)(F)F`, the “hERG current change (%, negative = inhibition) at 10uM” value rises from -55.1% to 11%.

Going from `Nn1c(SCC(=O)Nc2ccc3c(c2)OCCO3)nncc1=O` to `COCCCNC(=O)C(=O)Nc1cc2c3c(c1)CCN3C(=O)CC2`, the “hERG current change (%, negative = inhibition) at 10uM” value falls from 20.3% to 10.9%.

In the case of `CSc1nc(N)n(-c2cc(C(F)(F)F)ccn2)n1`, the “hERG current change (%, negative = inhibition) at 10uM” value is reported as 1.28%.
